Patent US10358436B2, “Kinase inhibitors and method of treating cancer” (University Health Network, priority 2010, dated 2019)

Experiments:
[1] = system: MCF-7 luminal breast cancer cell line; assay: cells; details: Homo sapiens, MCF7, 120 h, read-out: Cell Line GI50 Range MCF-7
[2] = system: HCC1954 basal breast cancer cell line; assay: cells; details: Homo sapiens, HCC1954, 120 h, read-out: Cell Line GI50 Range HCC-1954

Compound	GI50 [1] [nM]	GI50 [2] [nM]
CN1CCC(Oc2ccc(/C=C/c3n[nH]c4cc([C@@H]5C[C@@]56C(=O)Nc5ccccc56)ccc34)cc2)CC1 [Example A78, (1R,2S)-(E)-2-(3-(4-(1-methylpiperidin-4-yloxy)styryl)-1H-indazol-6-yl)spiro[cyclopropane-1,3′-indolin]-2′-one 2,2,2-trifluoroacetate salt]	1000 to 10000	100 to 1000
O=C1Nc2ccccc2[C@]12C[C@H]2c1ccc2c(/C=C/c3ccc(CN4CCCOCC4)cc3)n[nH]c2c1 [Example A72, (1R,2S)-(E)-2-(3-(4-((1,4-oxazepan-4-yl)methyl)styryl)-1H-indazol-6-yl)spiro[cyclopropane-1,3′-indolin]-2′-one 2,2,2-trifluoroacetate salt]	100 to 1000	1000 to 10000
CCN(CC)Cc1ccc(/C=C/c2n[nH]c3cc([C@@H]4C[C@@]45C(=O)Nc4ccccc45)ccc23)cc1 [Example A212, (1R,2S)-(E)-2-(3-(4-((diethylamino)methyl)styryl)-1H-indazol-6-yl)spiro-[cyclopropane-1,3′-indolin]-2′-one 2,2,2-trifluoroacetate]		1000 to 10000
CN(C)Cc1ccc(/C=C/c2n[nH]c3cc([C@H]4C[C@]45C(=O)Nc4ccccc45)ccc23)cc1 [Example A25, (1S,2R)-(E)-2-(3-(4-((dimethylamino)methyl)styryl)-1H-indazol-6-yl)spiro[cyclopropane-1,3′-indolin]-2′-one 2,2,2-trifluoroacetate]		> 10000
CCN(CC)Cc1ccc(/C=C/c2n[nH]c3cc([C@@H]4C[C@@]45C(=O)Nc4ccccc45)ccc23)cc1 (relative stereo) [Example A211, (1R*,2S*)-(E)-2-(3-(4-((diethylamino)methyl)styryl)-1H-indazol-6-yl)spiro-[cyclopropane-1,3′-indolin]-2′-one 2,2,2-trifluoroacetate]		1000 to 10000
CN(C)Cc1ccc(/C=C/c2n[nH]c3cc([C@H]4C[C@@]45C(=O)Nc4ccccc45)ccc23)cc1 (relative stereo) [Example A26, (1R*,2R*)-(E)-2-(3-(4-((dimethylamino)methyl)styryl)-1H-indazol-6-yl)spiro[cyclopropane-1,3′-indolin]-2′-one 2,2,2-trifluoroacetate]		1000 to 10000
O=C1Nc2ccc(F)cc2[C@]12C[C@H]2c1ccc2c(/C=C/c3ccc(CN4CCOCC4)cc3)n[nH]c2c1 [Example A220]	100 to 1000	> 10000
O=C1Nc2ccccc2[C@]12C[C@H]2c1ccc2c(/C=C/c3ccc(CN4CCCCC4)nc3)n[nH]c2c1 (relative stereo) [Example A63, (1R*,2S*)-(E)-2-(3-((E)-2-(6-(piperidin-1-ylmethyl)pyridin-3-yl)vinyl)-1H-indazol-6-yl)spiro[cyclopropane-1,3′-indolin]-2′-one 2,2,2-trifluoroacetate salt]		1000 to 10000
COc1ccc2c(c1)[C@]1(CC1c1ccc3c(/C=C/c4ccc(CN5CCCCC5)nc4)n[nH]c3c1)C(=O)N2 (mixture of isomers) [Example A62, (1R,2S)-(E)-5′-methoxy-2-(3-((E)-2-(6-(piperidin-1-ylmethyl)pyridin-3-yl)vinyl)-1H-indazol-6-yl)spiro[cyclopropane-1,3′-indolin]-2′-one 2,2,2-trifluoroacetate salt]		1000 to 10000
CN(C)Cc1ccc(/C=C/c2n[nH]c3cc([C@@H]4C[C@@]45C(=O)Nc4ccc(F)cc45)ccc23)cc1 (relative stereo) [Example A208, (1R*,2S*)-(E)-2-(3-(4-((dimethylamino)methyl)styryl)-1H-indazol-6-yl)-5′-flurorospiro[cyclopropane-1,3′-indolin]-2′-one 2,2,2-trifluoroacetate]	100 to 1000	100 to 1000
O=C1Nc2ccc(F)cc2[C@]12C[C@H]2c1ccc2c(/C=C/c3ccc(CN4CCOCC4)cc3)n[nH]c2c1 (relative stereo) [Example A219, 1R*,2S*)-(E)-5′-fluoro-2-(3-(4-(morpholinomethyl)styryl-1H-indazol-6-yl)spiro[cyclopropane-1,3′-indolin]-2′-one 2,2,2-trifluoroacetate]	100 to 1000	100 to 1000

Where a name gives a salt, the structure may show the parent alone.
